In PubChem BioAssay (NCI):
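Dose response: 5 concentrations. Exposure: 48 h. Format: 96-well plates. Endpoint: linear interpolation; highest concentration if not reached. At the GI50, growth is halved. The concentration for full growth arrest is given as TGI.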 Peptide text beside a SMILES is read from it.

Test system: NCI-H322M lung
Assay: DTP human tumour cell line panel, 48 h

SMILES | TGI [µM] | GI50 [µM]
Cn1c2cc(Cl)ccc2c2ccc3c(c21)C(=O)C=CC3=O | > 100 | –
CC1(C)CC(=O)C2=C(C1)N(c1ccccc1)C1(O)C=CC(=O)C3=C(O)c4ccccc4C(=O)C321 (stereo not given) | > 100 | –
COC1=CC(=O)N(C(=O)[C@@H](OC(=O)[C@@H]2CCCN2C(=O)[C@@H]2CCCN2C(=O)[C@H](CC(C)C)N(C)C(=O)[C@@H](NC(=O)[C@@H](NC(=O)OCc2ccccc2)C(C)C)C(C)C)C(C)C)[C@H]1Cc1ccccc1 (HELM PEPTIDE1{[O=C(OCc1ccccc1)[*:2]].V.V.[meL].P.P.[COC1=CC(=O)N(C(=O)[C@@H](O[*:1])C(C)C)[C@H]1Cc1ccccc1]}$$$$V2.0) | > 100 | –
Cc1[nH]ccc2cc3nc4ccccc4c3cc12 | 12.1 | 2.56
CN1CCN(CCCCNc2cc3c4ccccc4c(NCCCCN4CCN(C)CC4)cc3c3ccccc23)CC1 | 14.9 | –
CCCCCCCCCCC(CN(CC)CC)C(O)c1ccccc1 (stereo not given) | 16.4 | 4.47
CCc1ccccc1NC(=O)C1=C(C)NC(C)=C(C(=O)Nc2ccccc2CC)C1c1ccc(NC(C)=O)cc1 | > 100 | –
C=CC[C@@]1(C#N)C[C@H](C[C@]2(C#N)C[C@H](CCl)OC(C)(C)O2)OC(C)(C)O1 | > 100 | –
O/N=C1/C(=C/c2ccc(Cl)cc2)CCCC1C(NO)c1ccc(Cl)cc1 (stereo not given) | 29.9 | –
COc1cc(C(=O)OC2CC(C)=CC[C@@]3(C)CC[C@](O)(C(C)C)C23)ccc1O (stereo not given in full) | 29.1 | –
CC(=O)C1C(=O)C(=O)N(c2ccc([N+](=O)[O-])cc2Cl)C1=O (stereo not given) | > 100 | –
COc1cc2c(cc1-c1c(C)noc1C)ncc1[nH]c(=O)n([C@H](C)c3ccccn3)c12 | > 100 | 1.09
CCN(CC)CCNC(=O)c1cc2cc(NC(=O)c3cc4cc(NC(=O)c5cc6cc([N+](=O)[O-])ccc6[nH]5)ccc4[nH]3)ccc2[nH]1 | > 100 | –
CO[C@H]1/C=C/C[C@H](C)[C@@H](C)S(=O)(=O)NC(=O)c2ccc3c(c2)N(C[C@@H]2CC[C@H]21)C[C@@]1(CCCc2cc(Cl)ccc21)CO3 | 13.3 | 3.2
CC(C)(C)n1cc(-c2ccnc(NCCCNS(=O)(=O)c3ccc(Cl)cc3)c2)c(-c2cccc(O)c2)n1 | 6.86 | 2.46
COC(=O)C[C@](O)(CCC(C)(C)O)C(=O)O[C@@H]1C(OC)=C[C@]23CCCN2CCc2cc4c(cc2[C@H]13)OCO4 | 1.55 | –
O=C(O)C1=C(Cl)c2ccccc2S1(=O)=O | > 100 | –
O=C(Nc1ccc([N+](=O)[O-])cc1)c1cc2ccccc2cc1O | 6.53 | 0.312
Cn1c(=O)c2[nH]cnc2n(CC(=O)O)c1=O | > 100 | –
CSc1ccc(C(=O)/C=C/c2ccc(F)cc2)cc1 | > 100 | > 100
C#CCOc1cccc(Nc2ncnc3c2ncn3C2CCN(C(=O)CCl)C2)c1 (stereo not given) | > 100 | 76.9

SMILES | TGI [µM] | GI50 [µM]
N#CNc1nc(C(=O)Nc2ccc(Cl)cc2)cc(-c2ccccc2)n1 | > 100 | –
CC1(C)CC(O)CCCCCCOc2c(CN)cccc2NC(=O)c2nc(cnc2N)-c2ccc(cc2)S1(=O)=O (stereo not given) | 3.4 | 1.32
COc1ccc2nc(C3=CN(C4OC(CO)C(O)C(O)C4O)C4C=CC=CC34)sc2c1 (stereo not given) | 70.2 | 24.2
CN(C)C(=O)CO/N=C1/C(c2c(O)[nH]c3ccccc23)=Nc2ccccc21 | > 100 | –
COc1ccc(-c2cc3nccn3c(Nc3ncccc3C(N)=O)n2)cc1OC | > 100 | 1.01
CN(C)C(=S)/N=c1\ssc(=S)n1Cc1ccccn1 | > 100 | –
Cc1ccc2oc(=O)cc(C3c4ccc([nH]4)C(c4cc(=O)oc5ccc(C)cc45)c4ccc([nH]4)C(c4cc(=O)oc5ccc(C)cc45)c4ccc([nH]4)C(c4cc(=O)oc5ccc(C)cc45)c4ccc3[nH]4)c2c1 (stereo not given) | 3.36 | 0.0451
N=C(N)Cn1cnc2ccccc21 | > 100 | –
C/C=C/COc1cc(NC(=S)c2ccoc2C)ccc1OC | > 100 | –
CCNC(=O)CCCCC(=O)c1c(C)[nH]c(/C=C2\N=C(c3ccc[nH]3)C=C2OC)c1C | 27.5 | 10
CCOC(=O)CCc1c(C)c2c(O)cc(O)cc2oc1=O | > 100 | –
C=C(CN(CCN1CCOCC1)CC(=C)c1ccc(C(=O)Nc2ccccc2N)cc1)c1ccc(C(=O)Nc2ccccc2N)cc1 | 31.8 | 7.37
COc1ccc(CCNC(=S)/N=C\C2=C(O)c3ccccc3C2=O)cc1OC | > 100 | –
CC(=N\N=C\c1ccccn1)/C(C)=N/N=C/c1ccccn1 | > 100 | –
COc1ccc(-c2cc(-c3ccc(Nc4ccnc5cc(C(F)(F)F)ccc45)cc3)[nH]c(=O)c2C#N)cc1 | > 100 | –
Clc1ccc2c(NCCN3CCN(c4ccnc(N5CCCC5)n4)CC3)ccnc2c1 | 11.8 | 2.9
CC(=O)[CH-]C(=O)c1ccccc1.CC(=O)[CH-]C(=O)c1ccccc1.CC[O-].O=C1C=C([O-])C(=O)c2ccccc21.[Ti+4] | > 100 | > 100
O=C(O)CCc1nc(-c2ccccc2)c(-c2ccccc2)o1 | > 100 | –
COc1ccc(Cn2cc3c(c2-c2ccccc2)CCc2cncnc2-3)cc1 | 29.7 | 14.6
Cc1cc(O)c(/C=N/C(=O)NN)c(=O)o1 | > 100 | –
COC(=O)C1=C2CO[C@@H]3C[C@H]4C(C)(C)CCC[C@]4(C)C(=CC1)[C@]23C | > 100 | 31.9
